# This is one part of the list. Rule as the data show it: active = 3.2 or more and inactive = the rest. The signal is at background level for most entries.
# B1: BCR_Y751_YF (peptide)
# chain: GKTQQYDCKWF
# B2: BCR_Y756 (peptide)
# chain: YDCKWYIPLTD
# B3: BCR_Y756_D752E (peptide)
# chain: YECKWYIPLTD
# B4: BCR_Y910 (peptide)
# chain: ESPGLYGFLNV
# B5: BCR_Y910_Y910C (peptide)
# chain: ESPGLCGFLNV
# B6: BCS1L_Y181_R183H (peptide)
# chain: WRPFGYPHRRR
# B7: BEST1_Y131 (peptide)
# chain: RTLIRYANLGN
# B8: BEST1_Y227_D228N_YF (peptide)
# chain: GHLFAYNWISI
# B9: BEST1_Y227_G222V (peptide)
# chain: VHLYAYDWISI
# B10: BEST1_Y227_G222V_YF (peptide)
# chain: VHLFAYDWISI
# B11: BEST1_Y227_Y227N (peptide)
# chain: GHLYANDWISI
# B12: BEST1_Y227_Y227N_YF (peptide)
# chain: GHLFANDWISI
# B13: BEST1_Y227_YF (peptide)
# chain: GHLFAYDWISI
# B14: BIN1_Y157_R154Q (peptide)
# chain: SAQHHYESLQT
# B15: BIRC3_Y245 (peptide)
# chain: QDTSRYTVSNL
# B16: BIRC3_Y245_S248C (peptide)
# chain: QDTSRYTVCNL
# B17: BLM_Y296 (peptide)
# chain: FDDDDYDTDFV
# B18: BMP15_Y235 (peptide)
# chain: AFLLLYFNDTH
# B19: BMPR1A_Y453_YF (peptide)
# chain: GIVEEYQLPFF
# Molecular target: SHP2 C-SH2 domain E139D
# Experiment: enrichment score (SH2-bound / input frequency) (ratio); bacterial display of known human phosphotyrosine sites (pTyr-Var adds point mutants) read by sequencing; higher = stronger binding; tyrosines were phosphorylated by kinases first
# Conditions: peptide library: pTyr-Var
# 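Also: displayed peptides selected on beads carrying the immobilized SH2 domain, with library peptides lacking any tyrosine serving as negative controls.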
row,Binder,enrichment score
1,B1,inactive: 1.07
2,B2,inactive: 0.615
3,B3,inactive: 0.981
4,B4,inactive: 0.9
5,B5,inactive: 0.722
6,B6,inactive: 0.187
7,B7,inactive: 0.814
8,B8,inactive: 2.15
9,B9,active: 3.24
10,B10,inactive: 2.75
11,B11,active: 3.89
12,B12,inactive: 0.998
13,B13,inactive: 2.41
14,B14,inactive: 0.995
15,B15,inactive: 0.531
16,B16,inactive: 0.664
17,B17,inactive: 0.432
18,B18,inactive: 2.54
19,B19,inactive: 1.01

# Molecular target: SHP2 C-SH2 domain wild-type
# Experiment: as above
# Conditions: peptide library: pTyr-Var
row,Binder,enrichment score
1,B1,inactive: 1.03
2,B2,inactive: 0.838
3,B3,inactive: 1.26
4,B4,inactive: 0.875
5,B5,inactive: 1.08
6,B6,inactive: 0.2
7,B7,inactive: 1.23
8,B8,inactive: 1.94
9,B9,active: 3.31
10,B10,inactive: 2.49
11,B11,inactive: 3.06
12,B12,inactive: 0.909
13,B13,inactive: 1.97
14,B14,inactive: 0.93
15,B15,inactive: 0.749
16,B16,inactive: 1.05
17,B17,inactive: 0.545
18,B18,inactive: 2.3
19,B19,inactive: 0.899

# Molecular target: SHP2 N-SH2 domain L43F
# Experiment: as above
# Conditions: peptide library: pTyr-Var
row,Binder,enrichment score
1,B1,inactive: 0.822
2,B2,inactive: 0.685
3,B3,inactive: 1.16
4,B4,inactive: 0.806
5,B5,inactive: 0.807
6,B6,inactive: 0.209
7,B7,inactive: 1.66
8,B8,inactive: 1.72
9,B9,inactive: 3.06
10,B10,inactive: 2.45
11,B11,active: 3.62
12,B12,inactive: 0.983
13,B13,inactive: 2.15
14,B14,inactive: 1.05
15,B15,inactive: 0.637
16,B16,inactive: 0.56
17,B17,inactive: 0.415
18,B18,inactive: 1.91
19,B19,inactive: 0.993

# Molecular target: SHP2 N-SH2 domain T42A
# Experiment: as above
# Conditions: peptide library: pTyr-Var
row,Binder,enrichment score
1,B1,inactive: 0.817
2,B2,inactive: 0.607
3,B3,inactive: 0.827
4,B4,inactive: 0.827
5,B5,inactive: 0.808
6,B6,inactive: 0.338
7,B7,active: 4.01
8,B8,inactive: 1.76
9,B9,inactive: 2.96
10,B10,inactive: 2.41
11,B11,active: 11.2
12,B12,inactive: 1.14
13,B13,inactive: 2.06
14,B14,inactive: 1.32
15,B15,inactive: 0.673
16,B16,inactive: 0.742
17,B17,inactive: 0.432
18,B18,inactive: 1.77
19,B19,inactive: 0.817

# Molecular target: SHP2 N-SH2 domain T52S
# Experiment: as above
# Conditions: peptide library: pTyr-Var
row,Binder,enrichment score
1,B1,inactive: 0.84
2,B2,inactive: 0.704
3,B3,inactive: 0.915
4,B4,inactive: 0.767
5,B5,inactive: 0.895
6,B6,inactive: 0.268
7,B7,inactive: 1.81
8,B8,inactive: 1.79
9,B9,inactive: 3.03
10,B10,inactive: 2.32
11,B11,active: 3.74
12,B12,inactive: 1.03
13,B13,inactive: 2.31
14,B14,inactive: 0.857
15,B15,inactive: 0.598
16,B16,inactive: 0.694
17,B17,inactive: 0.491
18,B18,inactive: 2.17
19,B19,inactive: 0.724

# Molecular target: SHP2 N-SH2 domain wild-type
# Experiment: as above
# Conditions: peptide library: pTyr-Var
row,Binder,enrichment score
1,B1,inactive: 1.2
2,B2,inactive: 0.839
3,B3,inactive: 1.68
4,B4,inactive: 0.958
5,B5,inactive: 1.05
6,B6,inactive: 0.302
7,B7,inactive: 1.23
8,B8,inactive: 2.05
9,B9,inactive: 3.1
10,B10,inactive: 2.69
11,B11,inactive: 3.16
12,B12,inactive: 0.933
13,B13,inactive: 2.12
14,B14,inactive: 0.821
15,B15,inactive: 0.831
16,B16,inactive: 1.32
17,B17,inactive: 0.402
18,B18,inactive: 2.31
19,B19,inactive: 0.874
